Source: the supplement of paper PMC12217912
Some of the results follow. Sequences were assembled here from the parent chain. Inactive controls read about 0.05.

B1: TEV protease; numbered along this chain (parent)
chain: MGESLFKGPRDYNPISSSICHLTNESDGHTTSLYGIGFGPFIITNKHLFRRNNGTLVVQSLHGVFKVKDTTTLQQHLVDGRDMIIIRMPKDFPPFPQKLKFREPQREERICLVTTNFQTKSMSSMVSDTSCTFPSGDGIFWKHWIQTKDGQCGSPLVSTRDGFIVGIHSASNFTNTNNYFTSVPKNFMELLTNQEAQQWVSGWRLNADSVLWGGHKVFMVKPEEPFQPVKEATQL

Variants of: B1
Experiment: raw area under fraction-flipped curve 0-4 h after induction (AUC4h, not background-subtracted), DNA-recorder readout of cleavage of the substrate (dimensionless); higher = more cleavage of the substrate by the protease variant
Conditions: temperature: 34 °C; time window: 0-4 h after rhamnose induction
Method: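 In vivo DNA recorder in E. coli TOP10(DE3) ΔrhaA at 34 °C. Each TEVp single-site mutant (parent TEVp 0) is paired with a single-site variant of the 7-mer TEVs (canonical ENLYFQ|S). The substrate sits between flexible linkers in a Bxb1-sfGFP-TEVs-SsrA fusion, so cleavage stabilises Bxb1 and speeds flipping of a recombination array, read by NGS. The value is the raw area under the fraction-flipped curve over 0-4 h after rhamnose induction (AUC4h), with ≥20 reads per time point. It is not background-subtracted; inactive controls average about 0.047.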
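Also: Bxb1 expression induced with 0.2% (w/v) L-rhamnose at OD600 near 0.5, cultures sampled hourly, flipped fraction per protease–substrate barcode pair counted by paired-end Illumina sequencing.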

Variant | area with substrate ENLYFQA | area with substrate ENLYFQC | area with substrate ENLYFQD | area with substrate ENLYFQF | area with substrate ENLYFQG | area with substrate ENLYFQH | area with substrate ENLYFQI | area with substrate ENLYFQK | area with substrate ENLYFQL | area with substrate ENLYFQM | area with substrate ENLYFQN | area with substrate ENLYFQR | area with substrate ENLYFQS | area with substrate ENLYFQT | area with substrate ENLYFQV | area with substrate ENLYFQW | area with substrate ENLYFQY | area with substrate ENLYFQP | area with substrate ENLYFQQ | area with substrate ENLYFQE
V113L | 0.0976 | 0.109 | 0.0312 | 0.0796 | 0.119 | 0.0741 | 0.0594 | 0.0524 | 0.0688 | 0.08 | 0.0795 | 0.0608 | 0.102 | 0.0594 | 0.0576 | 0.0728 | 0.0532 | – | – | –
V113D | 0.038 | 0.0389 | – | 0.0591 | 0.0514 | 0.0519 | – | 0.0506 | 0.0455 | 0.0464 | 0.0517 | 0.0542 | 0.0493 | 0.0541 | 0.0568 | 0.0451 | 0.0622 | 0.0564 | 0.041 | –
V113H | 0.132 | 0.11 | 0.0689 | 0.0867 | 0.129 | – | 0.0201 | 0.0695 | 0.0575 | 0.11 | 0.0662 | 0.0621 | 0.0994 | 0.0748 | 0.0562 | 0.0635 | 0.0635 | 0.0619 | 0.0632 | 0.053
V113N | 0.0393 | – | 0.04 | – | 0.0698 | 0.0551 | 0.0495 | 0.0508 | – | – | – | 0.0532 | 0.0642 | 0.0609 | 0.037 | 0.031 | 0.0554 | 0.0588 | – | 0.0913
F101Q | 0.0315 | 0.0526 | 0.0415 | 0.0403 | 0.0501 | 0.0454 | – | 0.0473 | 0.041 | 0.048 | 0.0411 | 0.0598 | 0.0505 | – | 0.0596 | 0.0501 | 0.0443 | – | – | –
M122Y | 0.0891 | 0.12 | – | 0.0498 | 0.0753 | 0.0773 | 0.058 | 0.0548 | 0.0635 | 0.0276 | 0.0734 | 0.0545 | 0.104 | 0.0557 | 0.0573 | 0.0656 | – | – | 0.063 | –
M122P | 0.088 | 0.0997 | 0.0801 | 0.0711 | 0.106 | 0.0749 | 0.0557 | 0.115 | 0.0666 | – | 0.0735 | 0.0636 | 0.107 | 0.0715 | 0.0472 | – | 0.0589 | – | 0.0821 | –
Q118A | 0.0924 | 0.0813 | 0.0729 | – | 0.0852 | – | 0.054 | 0.0531 | 0.0643 | 0.0636 | 0.0799 | 0.0077 | 0.104 | – | 0.0623 | 0.0551 | – | 0.0598 | – | –
Q118H | 0.0563 | 0.129 | – | 0.0978 | – | 0.0823 | – | 0.0832 | 0.0603 | – | – | 0.0578 | 0.0979 | 0.0741 | – | – | – | – | – | –
Q118N | 0.11 | 0.15 | – | 0.071 | 0.0802 | 0.106 | 0.066 | 0.0696 | 0.054 | 0.0946 | – | 0.0519 | 0.105 | 0.0652 | 0.0473 | – | 0.0827 | – | 0.0598 | –
T114M | 0.105 | – | 0.0761 | – | – | – | – | 0.0682 | 0.0658 | 0.0841 | 0.0663 | 0.0703 | 0.101 | – | – | – | 0.076 | 0.0592 | 0.0957 | –
V126G | 0.123 | 0.0901 | – | – | – | – | – | 0.0637 | 0.0566 | 0.111 | 0.0873 | 0.0482 | 0.114 | – | 0.0578 | 0.0762 | – | – | – | –
